Experimental data: PubChem BioAssay AID1671193 (National Center for Advancing Translational Sciences (NCATS), 2021)
About 180 (0.12%) of roughly 150,000 compounds were called active. Inconclusive means that the source gave no clear call. Such entries were picked first, then a sample of the others. Calls follow the shape of the dose curve; as a rule, active = well fitted cell-killing curve with a large enough effect; inconclusive = small, poorly fitted or top-dose-only effect, or effect the other way; inactive = flat fitted curve, though single readings scatter. Potencies beside an inconclusive call are fits to weak or partial responses and may not hold up.

Test: GF-AFC viability counterscreen for inhibitors of alpha-synuclein gene (SNCA) expression; also: nearly all actives have a fitted effect of over 30% in size
Settings: HEK-293-SNCA-luc viability, GF-AFC fluorescence, 24 h; activity change, negative = cytotoxicity: at 57.1 µM (top of the series) unless noted
Description: Assay Submitter (PI): Daniel R. Scoles Ph.D.
Department of Neurology, University of Utah, Salt Lake City, Utah
Accumulation of alpha-synuclein is a main underlying pathological feature of Parkinson's disease (PD) and alpha-synucleinopathies, for which lowering expression of the alpha-synuclein gene (SNCA) is a potential therapeutic avenue. Using a cell-based luciferase reporter of SNCA expression we performed a quantitative high throughput screen (qHTS) of 155,885 compounds in dose response. The screening assay was generated using genome editing to insert the luciferase gene downstream and in frame of the SNCA gene in HEK-293 cells (1). A viability counterscreen using GF-AFC was used to eliminate cytotoxic and false positive compounds. After in silico analysis (clustering, removal of frequent hitter nuisance chemotypes), inhibitor compounds from the primary screen were selected for follow up and re-tested at 11-doses in the SNCA-luc cells (luciferase and GF-AFC confirmation), and in CMV-luc expressing cell line to flag general transcriptional repressors.
Described herein are the results of the GF-AFC viability counterscreen for SNCA inhibitors; inactivity (no decrease in fluorescence signal, not cytotoxic) is the desired output for this assay.
1. Dansithong, W., Paul, S., Scoles, D. R., Pulst, S. M., and Huynh, D. P. (2015) Generation of SNCA Cell Models Using Zinc Finger Nuclease (ZFN) Technology for Efficient High-Throughput Drug Screening. PLoS ONE 10, e0136930.
SEQUENCE No. (e.g., 1, 2, 3, etc.); […] (e.g., Cells, Incubation, Reagent, etc.); VALUE; DESCRIPTION
1; Cells; 4 uL; Dispense 1500 HEK-293-SNCA-luc cells/well into Greiner 1536-well white / solid bottom tissue culture treated plate. The plate was covered with metal lids with gas-exchange holes.
2; Incubate; 24 hours; Incubate at 37C, 5% CO2, 95% RH.
3; Compounds; 23 nL; Compounds and controls were transferred via a Kalypsys Pin Tool (Wako USA) equipped with a 1536-slotted pin array. The plate was covered with metal lids with gas-exchange holes.
4; Incubate; 24 hours; Incubate at 37C, 5% CO2, 95% RH.
5; Dispense; 1 uL; Dispense Gly-Phe-7-amino-4-trifluoromethylcoumarin (GF-AFC, prepared at 125 uM in PBS) was added. The plate was covered with metal lids with gas-exchange holes.
6; Incubate; 30 min; Incubate at 37C, 5% CO2.
7; Detector; Fluorescence; Measure fluorescence with ViewLux microplate reader (PerkinElmer) equipped with 405/10 excitation and 540/25 emission filters.
8; Dispense; 3 uL; Dispense ONE-Glo ([…]) lucifase detection reagent was added to each well. Plates were covered with metal lids with gas-exchange holes.
9; Incubate; 15 min; Incubate at room temperature.
10; Detector; Luminescence; Measure luminescence with ViewLux microplate reader (PerkinElmer) equipped with clear filters.
NOTES (numbers refer to sequence above)
1; HEK-293-SNCA-luc were cultured and suspended in phenol-red free DMEM (4.5 g/L glucose, 25 mM HEPES, cat #21063 (Thermo)).
3; Compounds were added to the assay plate in an 11-point intra plate dose response, 1:3 titration in DMSO with a final concentration range of […]. Vehicle-only plates, with DMSO being pin-transferred to every well, were inserted at the beginning of screening runs to confirm expected assay performance. Activity was normalized to wells containing medium only (-100% activity, full inhibition) and SNCA-luc cells treated with DMSO vehicle control (0% activity), contained on the same plate as test samples.
10; Signals were analyzed, and dose-response curves were fit using the Hill equation. Compounds in curve classes -1.1, -1.2, -2.1, -2.2 in the SNCA-luc assay were considered active. Compounds were eliminated from further consideration if also active (curve class -1.1, -1.2, -1.3, -1.4, -2.1, -2.2, -2.3, -2.4) in the GF-AFC cytotoxicity assay.
Potency is read from the fitted curve at half-maximal effect; tags tell the direction and shape of the fitted curve.

| SMILES | Potency | activity change, negative = cytotoxicity |
| --- | --- | --- |
| CC(=O)c1cccc(NC(=O)c2nc3ccccc3n(C)c2=O)c1 | inconclusive: 20 µM [cytotoxic, partial curve, poor fit] | – |
| CCOC(=O)c1cc2c(=O)n3ccccc3nc2n(Cc2ccco2)c1=NC(=O)c1ccccc1Br | inconclusive: 20 µM [rising, partial curve] | – |
| COc1ccc(-c2ccnc3nc(CCc4ccccc4)nn23)c(F)c1 | inactive | – |
| CC(C)C(=O)N[C@H]1C[C@@H](Cc2cc(COc3ccccc3)on2)C1(C)C | inconclusive: 28.2 µM [cytotoxic, partial curve, poor fit] | – |
| O=C(Nc1ccc(F)cc1)C1CN(c2ccccc2)C(=O)N1 (stereo unspecified) | inconclusive: 8.91 µM [rising, partial curve] | – |
| COc1ccccc1-c1nn2c(=O)cc(CN3CCN(C(=O)Nc4ccc(C)cc4Cl)CC3)nc2s1 | inconclusive: 2.24 µM [cytotoxic, full curve, poor fit] | – |
| COc1cccc2c1C(=O)c1c(O)c3c(c(O)c1C2=O)C[C@@](O)(C(C)=O)C[C@H]3O[C@H]1C[C@H](N)[C@H](O)[C@H](C)O1 | inconclusive: 0.429 µM [cytotoxic, full curve] | – |
| COc1ccc(-c2noc([C@@H]3CCCN3C(=O)c3cc(Cl)ccc3OC)n2)cc1 | inconclusive: 8.91 µM [cytotoxic, partial curve, poor fit] | – |
| Cc1sc(-n2cccc2)c(C(C)NC(=O)Nc2cccc(C(F)(F)F)c2)c1C (stereo unspecified) | inconclusive: 20 µM [cytotoxic, partial curve, poor fit] | – |
| COc1ncccc1-c1cnc2[nH]cc(CC(=O)N(C)Cc3ccccc3)c2c1 | inconclusive: 25.1 µM [cytotoxic, partial curve, poor fit] | – |
| COc1ccc(C(=O)N2CCCC(n3cc(-c4nc(-c5ccccc5)no4)nn3)C2)cc1 (stereo unspecified) | inconclusive: 35.5 µM [cytotoxic, single point] | – |
| C=CCn1cc2c3c(cccc31)[C@H](CC(C)C)N[C@H](C(=O)NCc1ccc(OC)cc1)C2 | inactive | – |
| CC(C)N1C(=O)C2(CCCC2)C1C(=O)O (stereo unspecified) | inconclusive: 2 µM [rising, full curve] | – |
| Cn1ncc2c(C(=O)N3CCCCC3)cc(-c3ccc(Cl)cc3Cl)nc21 | inconclusive: 39.8 µM [cytotoxic, single point] | – |
| Cc1cc(Cl)ccc1NC(=O)CCn1ccn2nc3c(c2c1=O)CCCC3 | inactive | – |
| CCc1ccc(C(=O)N2CCC3(CC2)N(c2ccccc2)C(=O)CS3(=O)=O)cc1 | inconclusive: 5.01 µM [cytotoxic, single point] | – |
| c1ccc(OCC2CN(Cc3ccc4[nH]ccc4c3)CC23CN(c2ccccc2)C3)cc1 (stereo unspecified) | inconclusive: 44.7 µM [cytotoxic, partial curve, poor fit] | – |
| Cn1ncc2c(C(=O)NC3CCCC3)cc(-c3ccc(Cl)nc3)nc21 | inactive | – |
| COc1ccc(C(=O)NCC2(N3CCN(C)CC3)CCCCC2)cc1 | inconclusive: 2.51 µM [cytotoxic, full curve, poor fit] | – |
| CCc1cccc2c(C(CC(=O)NCCc3ccc(OC)c(OC)c3)c3ccccc3OC)c[nH]c12 (stereo unspecified) | inactive | – |
| COc1cccc(NC(=O)Cn2c(=O)n(-c3ccc(Cl)cc3)c(=O)c3sc4ccccc4c32)c1 | inconclusive: 28.2 µM [cytotoxic, single point] | – |

| SMILES | Potency | activity change, negative = cytotoxicity |
| --- | --- | --- |
| COc1ccc(S(=O)(=O)NCC(c2ccco2)N2CCOCC2)cc1C (stereo unspecified) | inconclusive: 7.08 µM [rising, single point] | – |
| O=C1CC2(CCN(C(=O)c3ccc4c(c3)OCO4)CC2)Oc2cc(Cl)ccc21 | inactive | – |
| CCCCNC(=O)c1c(C)oc2ncn(CC(C)C)c(=O)c12 | inconclusive: 35.5 µM [rising, partial curve, poor fit] | – |
| CCC(=O)N(C1CCOCC1)C1CCN(S(=O)(=O)c2ccccc2)CC1 | inactive | – |
| O=C(NCc1cccc(Cl)c1)c1ccc2nnc(-c3cc(C(F)(F)F)cc(C(F)(F)F)c3)n2c1 | inactive | – |
| COc1cc(NC(=O)CN2C(=O)COc3ccc(S(=O)(=O)N4CCCCC4)cc32)cc(OC)c1 | inconclusive: 31.6 µM [cytotoxic, partial curve, poor fit] | – |
| COc1ccc(NC(=O)NC2CCN(C(=O)N3CC4CC(C3)[C@H]3CCCC(=O)N3C4)CC2)cc1 (stereo partly specified) | inconclusive: 2.24 µM [rising, full curve, poor fit] | – |
| CC(C)Oc1cccc2c1c(NC(=O)C1CC(=O)N(C)C1)nn2Cc1ccccc1 (stereo unspecified) | inconclusive: 0.891 µM [rising, full curve, poor fit] | – |
| Cc1noc(C)c1S(=O)(=O)N1CCCOCCNC(=O)[C@@H]2CCCC[C@@H]21 | inconclusive: 28.2 µM [cytotoxic, single point] | – |
| COc1ccc(C(=O)NCCc2sc(-c3ccc(Cl)cc3)nc2C)c(OC)c1 | inconclusive: 25.1 µM [cytotoxic, single point] | – |
| Cc1nn2c(c1-c1ccccc1[S+](C)(=O)[O-])N(CCCc1ccccc1)CCC2 | inconclusive: 4.47 µM [cytotoxic, full curve] | – |
| OC[C@@H]1CN(Cc2ccc(F)cc2)C[C@H]1c1nc(-c2ccncc2)no1 | inactive | – |
| CN(C)C[C@@H]1CN(C2CCOCC2)C[C@H]1NC(=O)c1ccc2cc[nH]c2c1 | inconclusive: 28.2 µM [rising, single point] | – |
| COc1ccc(CNc2ncncc2-c2ccccc2C(F)(F)F)c(OC)c1 | inconclusive: 0.708 µM [cytotoxic, full curve, poor fit] | – |
| CCOc1ccc(C(=O)c2cn(Cc3ccc(Cl)cc3)c3cc(OC)c(OC)cc3c2=O)cc1 | inconclusive: 1.78 µM [cytotoxic, full curve, poor fit] | – |
| COc1ccc(-n2c(=O)c3sc4ccccc4c3n(CC(=O)Nc3ccccc3F)c2=O)cc1 | inconclusive: 20 µM [cytotoxic, partial curve, poor fit] | – |
| COc1ccc(Nc2ccnc(N3CCC(NC(=O)c4ccccc4)CC3)n2)cc1 | inactive | – |
| Cc1ccccc1CNC(=O)[C@H]1CCC[C@H]1NC(=O)c1ccncc1 | inconclusive: 4.47 µM [cytotoxic, single point] | – |
| O=C(N[C@@H]1CN(Cc2ccc(F)cc2Cl)C[C@H]1CO)C1CCC1 | inconclusive: 3.98 µM [cytotoxic, partial curve, poor fit] | – |
| CC(=O)N1CCC(Cc2ncc(C)n2C(C)C)C1 (stereo unspecified) | inconclusive: 3.16 µM [cytotoxic, single point] | – |
| Cn1c(C(=O)Nc2cccc(C(F)(F)F)c2)cc2c(=O)n3ccccc3nc21 | inconclusive: 22.4 µM [rising, single point] | – |

| SMILES | Potency | activity change, negative = cytotoxicity |
| --- | --- | --- |
| CC(C)C[C@@H]1N[C@H](C(=O)NCCCn2ccnc2)Cc2c[nH]c3cccc1c23 | inactive | – |
| COc1cc(NC(=O)c2cccc3c2C(=O)N(C2CCCCC2)C3)cc(OC)c1OC | inconclusive: 39.8 µM [cytotoxic, single point] | – |
| O=C(Cn1ccn2nc(-c3ccc(F)cc3)c(CO)c2c1=O)N1CCCc2ccccc21 | inconclusive: 10 µM [cytotoxic, partial curve, poor fit] | – |
| CNC(=O)[C@@H]1C[C@H](Oc2ccccc2)CN1C(=O)c1ccc(C)nc1 | inconclusive: 10 µM [cytotoxic, partial curve, poor fit] | – |
| CCN(CC)CCNC(=O)C1CCN(c2nn3cc(-c4ccc(F)cc4)nc3s2)CC1 | inconclusive: 44.7 µM [cytotoxic, single point] | – |
| CCCNc1cc(N2CCC(CCC(=O)NCc3ccccc3Cl)CC2)ncn1 | inactive | – |
| Cc1cnc(C2CN(S(=O)(=O)c3ccccc3)C2)n1Cc1cccnc1 | inconclusive: 1.26 µM [rising, full curve, poor fit] | – |
| O=C(NCCNC(=O)c1cccc(-c2ccsc2)c1)NC1CCCC1 | – | inactive: 3.03% [at 12.5 µM] |
| CCOc1ccc(CNCc2c(C(=O)O)c(C)n(Cc3cccc(OC)c3)c2C)cc1OC | inconclusive: 39.8 µM [cytotoxic, single point] | – |
| O=c1[nH]cnc2c1ncn2[C@H]1CC[C@@H](CO)O1 | inconclusive: 10.8 µM [cytotoxic, full curve, poor fit] | – |
| Cc1cccc(N2Cc3c(ncnc3N3CCOCC3)CN(C)C2=O)c1 | inconclusive: 7.08 µM [cytotoxic, full curve, poor fit] | – |
| Nc1nc(Nc2ccc3c(c2)CCC(N2CCCC2)CC3)nn1-c1cc2c(nn1)-c1ccccc1CCC2 (stereo unspecified) | inconclusive: 37.7 µM [cytotoxic, single point] | – |
| O=C(N1CCN(c2cc(-c3ccc(Cl)cc3)[nH]n2)CC1)C1(c2ccccc2)CC1 | inconclusive: 39.8 µM [cytotoxic, single point] | – |
| Cc1ccc(NC(=O)N[C@@H]2C=C(C(=O)N[C@@H](Cc3cccs3)C(N)=O)C[C@@H](O)[C@@H]2O)cc1 | inactive | – |
| COc1ccccc1CNc1ncnc2ccc(-c3ccc(C(=O)N(C)C)cc3)cc12 | inactive | – |
| O=C1Nc2ccccc2CN(CC2CCCCC2)C12CCNC2 (stereo unspecified) | inconclusive: 2.82 µM [cytotoxic, full curve, poor fit] | – |
| COc1ccccc1NC(=O)CSc1nc(-c2ccc(C(C)(C)C)cc2)c(C#N)c(=O)[nH]1 | inconclusive: 39.8 µM [cytotoxic, single point] | – |
| CCCc1ncncc1C(=O)N1CCCC(CCc2ccc(F)cc2)C1 (stereo unspecified) | inactive | – |
| Cc1cccc(N(C)C(=O)Cn2c(=O)n(-c3ccccc3)c(=O)c3c2cc(C)n3C)c1 | inconclusive: 2.51 µM [cytotoxic, full curve] | – |
